Measured values reported in the supplement of paper PMC3334620.
In all, about 33,000 sequences were measured (“E-score (-0.5 to 0.5)”: median about -0.013, highest 2% from about 0.3 on). The list shows a part of the results.

What follows are sequences tested against T1, Msn1 (UniProt P22148) (assay: PBM E-score (8-mer binding enrichment) (E-score (-0.5 to 0.5)); higher = stronger / more preferred TF binding; most listed sequences are background and not binding sites). Settings: protein concentration: 200 nM; construct: GST-full length.
T1 sequence: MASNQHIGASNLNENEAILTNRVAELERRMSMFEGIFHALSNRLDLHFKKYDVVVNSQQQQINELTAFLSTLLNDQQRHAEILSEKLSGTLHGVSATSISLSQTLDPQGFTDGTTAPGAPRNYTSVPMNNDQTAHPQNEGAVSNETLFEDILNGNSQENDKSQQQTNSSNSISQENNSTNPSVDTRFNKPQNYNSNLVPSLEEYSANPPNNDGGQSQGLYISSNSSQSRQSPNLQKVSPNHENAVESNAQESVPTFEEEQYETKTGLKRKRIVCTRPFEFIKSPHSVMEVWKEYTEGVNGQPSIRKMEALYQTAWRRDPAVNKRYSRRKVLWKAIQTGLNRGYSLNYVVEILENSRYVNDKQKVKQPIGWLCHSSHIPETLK
Procedure, shortened: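 Yeast transcription factors, full-length or as DNA-binding domains, were expressed with a GST tag using PURExpress in vitro transcription/translation. At about 100-200 nM they were applied to universal all-10-mer Agilent arrays, double-stranded by primer extension on fresh or once-stripped slides. Fluorescent anti-GST detected bound protein, and masliner normalised the scans. E-scores for ungapped eight-base words, pooled with reverse complements, came from the Universal PBM Analysis Suite.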

Sequence | PBM E-score
GTCATTCA | 0.119
ATGACAAG | 0.298
GACTTGGC | -0.192
GAGCCTTA | -0.168
CGTCGGCC | -0.107
CGCCATAG | -0.219
ATAGCACC | -0.134
CAGCATAG | -0.0968
CAGAGTCG | -0.156
AGGTCTTA | -0.0337
ATGTAAAG | -0.0428
ACGCAATG | 0.0218
CGGCCATA | -0.022
CACGGTGA | -0.012
CTCGGCGC | 0.0354
GAGACCTC | -0.0881
ACACACGC | 0.0548
AACCGTGA | -0.0232
ACCTCGCA | -0.0893
AACAGCAA | 0.0783
CGCCAAGC | -0.198
AAGAGACG | 0.147
AGTACGCA | -0.215
CGGCTCTA | -0.00727
AAGGAGTG | -0.146

Sequence | PBM E-score
ATGTACCG | 0.279
ACCAATAT | 0.219
CAGACTAA | 0.146
CTTACCCC | -0.24
ACTTGTTG | -0.109
CTCAGAAA | 0.00503
CAACAGCA | 0.0458
AATCATAG | -0.0142
ATATTGAA | 0.155
CAAACGAG | 0.099
CTCTAATC | -0.0859
CACGAGTC | 0.0105
GACCGGAC | 0.187
CAGCGGAG | -0.259
ACCTTCGC | -0.13
AGCTGCGA | -0.0645
GCCATTCA | -0.00319
GCTGATGA | -0.156
ATTCTTTG | 0.0847
ATTAAGGA | 0.122
CTAGTGAA | -0.0591
ATCCCCAC | -0.131
ATGTCTTC | 0.293
CCAGGGAC | 0.0428
ACCCAAAC | 0.174

Sequence | PBM E-score
CTTGCGCC | -0.238
CAGGTCCA | 0.0853
CCGACTAC | -0.0814
ATCGACGA | -0.0285
CACCACTG | -0.0655
ACGAAGCG | -0.0822
AGTACGTA | 0.157
CAAAGTGG | -0.24
GTGACCGA | -0.0453
GACCGACC | 0.0347
GGTAGACC | -0.148
AGCGCCCT | -0.213
AAGAGGCC | -0.249
GTTCGTGA | -0.199
AACGGGTC | -0.155
AGCAAGAT | 0.0426
GACGCGAC | -0.0569
GTTTTGTA | 0.2
CTCTTGAC | 0.0314
CTCCCTTC | -0.387
CGTACATA | 0.296
ACGAGAGG | -0.0785
TACTTCTA | 0.0186
AATACAGA | 0.189
ACCCGACT | 0.0802

Sequence | PBM E-score
GCGAATCC | -0.0802
AAGCCGAG | 0.0736
TCTATTCA | 0.123
AGCGGTCA | -0.0209
GGCTGACA | -0.0146
CATTCGGC | 0.0202
ACGGCCTA | -0.0688
AAAGGTGG | -0.0633
TCCGCGCA | 0.18
AGATGGCA | -0.0264
ACGATTAA | -0.00425
ACTCAGAT | -0.0382
ACCTGAGC | -0.0275
CTGCGCGC | 0.069
GTATTACA | 0.0681
AACTATCA | 0.0801
CGGTGCCA | -0.201
AAAGCCCG | -0.00367
AATTACCG | 0.0583
AACATTCG | -0.0558
GTTCAGAA | -0.0005
ACAGACCC | -0.139
TACCTGAA | 0.0491
AACAAGAA | 0.0572
AGTGGATG | -0.145

Sequence | PBM E-score
AATACCAC | -0.0531
ATTGCCAG | 0.0682
AGCACTGC | -0.202
AAGTCAGC | 0.0995
AATTTCGG | 0.0993
ACTGTCCT | 0.151
AAATTTTG | 0.108
ATTTGGCG | -0.151
AGACTCGA | -0.00201
GGTACCAC | -0.0136
ATAGTACC | 0.11
GCATAAGA | -0.0375
CTCGGCTA | -0.0716
CTCTGGAC | 0.0287
TTCGCCAA | -0.261
CTGGTACC | -0.121
ATGCGGAC | 0.16
CGTCAATA | -0.138
ACAGTGAC | 0.123
CATCGGCG | -0.152
GCTTCTCC | -0.267
ATAGCGCG | 0.0211
CCGCCACC | -0.232
ACTCTGCG | 0.0422
ACACTCTG | -0.195

Sequence | PBM E-score
TAGCCCAA | 0.0745
GTGCACAC | -0.0354
CAACAAAC | -0.0143
CTAATCCA | -0.00748
GAACTATC | -0.11
CAGAACCG | -0.0856
CGCTGTTC | -0.102
CTGTTTGA | 0.11
GACTTCGC | 0.181
CCCTAGAC | -0.138
AGTCCCTG | -0.0264
AATGTAGG | -0.11
AGCTGTGG | -0.061
GCGCGAAA | 0.176
ACCGAACG | 0.145
CCTAAACG | -0.0151
GCTCCCTA | -0.334
GCTCGGAA | -0.0373
GTAAAAAC | 0.091
AGTTTTAA | 0.224
AGGCTACG | -0.204
ATGGATCA | -0.0149
CCTGTGGC | -0.232
AAGCCTGG | -0.122
CAAATCCC | -0.0311

Sequence | PBM E-score
AACAGGCT | -0.0468
CACAAGAC | -0.118
CATATCCA | -0.0731
CTGTCCGA | 0.275
AGCACAGC | -0.111
AAGAGTAT | -0.0865
AGGCCGAC | -0.172
TTGGCCAA | -0.144
CAGAACAC | -0.0663
TAACTCTA | -0.169
GCGCTAGA | -0.116
TCGCTAGA | -0.152
AAGGTTCA | -0.157
TGGCTTAA | 0.0667
CAGCAGCC | -0.00462
CACGCAAC | 0.0696
AACACCTA | -0.134
ACGGTCAC | -0.201
CCCATGCC | -0.212
GCTACCCC | -0.366
CGTACCAC | -0.0887
CAGAAGGG | -0.107
